# According to PubChem BioAssay (Tox21):
# The inconclusive results got no clear call from the source; some entries with a clear call stand among them for comparison. For some assays here: Potencies of inconclusive entries are left out as doubtful fits. Activity calls are given as the source filed them. Unless noted, calls follow the shape of the dose curve; as a rule, active = well fitted curve in the direction sought with a large enough effect in the repeat runs; inconclusive = weak or mixed curves; inactive = no such curve, though single readings can be large; an effect the other way counts as inactive or inconclusive.
# What was measured:
# [1] = qHTS assay for small molecules that induce genotoxicity in human embryonic kidney cells expressing luciferase-tagged ATAD5 - cell viability (AID 651634; calls by dose curve; also: potency is read from the fitted curve at half-maximal effect; nearly all actives have a fitted effect of over 25% in size)
# How it was run: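 After 15.5 hr incubation with compound at 37C, 5% CO2, HEK293T ATAD5-luciferase cells received CellTiter-Fluor reagent; fluorescence intensity was quantified following 30 min at 37C.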
# [2] = target: Glucocorticoid receptor (Homo sapiens) (UniProt P04150); assay: qHTS assay to identify small molecule antagonists of the glucocorticoid receptor (GR) signaling pathway (AID 720692; active = well fitted inhibition curve with a large enough effect in the signal ratio in the repeat runs, not every such curve was filed as active; inconclusive = weak or mixed curves, or effect the other way; inactive = no such curve, though single readings can be large or run the other way; the % refers to the signal ratio; also: % is scaled to controls: 0 for no effect and ±100 for the full control effect); conditions: GR-bla HeLa, beta-lactamase FRET ratio, dexamethasone-stimulated, 18 h; activity change, negative = inhibition: at 58.5 µM (top of the series) unless noted
# UniProt P04150, sequence (P04150 whole entry, looked up): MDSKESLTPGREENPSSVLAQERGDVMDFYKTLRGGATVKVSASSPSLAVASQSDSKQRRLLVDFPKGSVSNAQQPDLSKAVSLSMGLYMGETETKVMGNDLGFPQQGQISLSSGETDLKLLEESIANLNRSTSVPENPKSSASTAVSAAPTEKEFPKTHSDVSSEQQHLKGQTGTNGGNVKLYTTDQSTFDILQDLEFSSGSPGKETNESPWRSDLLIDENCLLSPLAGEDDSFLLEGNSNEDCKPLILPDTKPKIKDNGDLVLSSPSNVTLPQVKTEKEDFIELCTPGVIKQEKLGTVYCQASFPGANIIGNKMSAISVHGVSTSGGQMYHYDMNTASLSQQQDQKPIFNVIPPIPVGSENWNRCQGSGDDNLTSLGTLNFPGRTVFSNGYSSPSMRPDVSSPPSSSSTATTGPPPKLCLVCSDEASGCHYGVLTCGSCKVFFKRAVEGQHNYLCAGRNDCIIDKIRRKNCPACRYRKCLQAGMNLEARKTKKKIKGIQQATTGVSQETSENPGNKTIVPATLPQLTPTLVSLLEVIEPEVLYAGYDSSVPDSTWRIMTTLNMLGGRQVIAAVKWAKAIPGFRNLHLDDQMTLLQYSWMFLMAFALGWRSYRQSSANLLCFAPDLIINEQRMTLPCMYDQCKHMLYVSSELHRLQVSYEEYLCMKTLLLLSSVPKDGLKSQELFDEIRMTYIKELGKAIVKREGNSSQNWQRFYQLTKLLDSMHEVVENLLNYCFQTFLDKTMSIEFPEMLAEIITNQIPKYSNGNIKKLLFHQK
# How it was run: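 Quantitative HTS in antagonist format: HeLa cells expressing endogenous GR and a stably integrated GRE-bla reporter, stimulated with 5 nM dexamethasone (final) alongside test compounds for 18 h.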
# [3] = qHTS assay for identifying genotoxic compounds that show differential cytotoxicity against isogenic chicken DT40 cell lines with known DNA damage response pathways - Rad54/Ku70 mutant cell line (AID 743015); conditions: DT40 Rad54/Ku70 mutant viability, CellTiter-Glo, 40 h; activity change, negative = cytotoxicity: at 66.8 µM (top of the series) unless noted; also: potency is read from the fitted curve at half-maximal effect; nearly all actives have a fitted effect of over 60% in size
# [4] = qHTS assay to identify small molecule antagonists of the androgen receptor (AR) signaling pathway - cell viability counter screen (AID 743033; also: potency is read from the fitted curve at half-maximal effect; nearly all actives have a fitted effect of over 45% in size); conditions: AR-bla HEK293 viability, CellTiter-Glo luminescence, 16 h; activity change, negative = cytotoxicity: at 58.5 µM (top of the series) unless noted
# [5] = target: Androgen receptor (Homo sapiens) (UniProt P10275); assay: qHTS assay to identify small molecule antagonists of the androgen receptor (AR) signaling pathway (AID 743035; active = well fitted inhibition curve with a large enough effect in the signal ratio in the repeat runs, not every such curve was filed as active; inconclusive = weak or mixed curves, or effect the other way; inactive = no such curve, though single readings can be large or run the other way; the % refers to the signal ratio; also: % is scaled to controls: 0 for no effect and ±100 for the full control effect); conditions: HEK293 AR-UAS-bla, R1881-stimulated, beta-lactamase FRET, 16 h; activity change, negative = inhibition: at 58.5 µM (top of the series) unless noted
# UniProt P10275, sequence (P10275 whole entry, looked up): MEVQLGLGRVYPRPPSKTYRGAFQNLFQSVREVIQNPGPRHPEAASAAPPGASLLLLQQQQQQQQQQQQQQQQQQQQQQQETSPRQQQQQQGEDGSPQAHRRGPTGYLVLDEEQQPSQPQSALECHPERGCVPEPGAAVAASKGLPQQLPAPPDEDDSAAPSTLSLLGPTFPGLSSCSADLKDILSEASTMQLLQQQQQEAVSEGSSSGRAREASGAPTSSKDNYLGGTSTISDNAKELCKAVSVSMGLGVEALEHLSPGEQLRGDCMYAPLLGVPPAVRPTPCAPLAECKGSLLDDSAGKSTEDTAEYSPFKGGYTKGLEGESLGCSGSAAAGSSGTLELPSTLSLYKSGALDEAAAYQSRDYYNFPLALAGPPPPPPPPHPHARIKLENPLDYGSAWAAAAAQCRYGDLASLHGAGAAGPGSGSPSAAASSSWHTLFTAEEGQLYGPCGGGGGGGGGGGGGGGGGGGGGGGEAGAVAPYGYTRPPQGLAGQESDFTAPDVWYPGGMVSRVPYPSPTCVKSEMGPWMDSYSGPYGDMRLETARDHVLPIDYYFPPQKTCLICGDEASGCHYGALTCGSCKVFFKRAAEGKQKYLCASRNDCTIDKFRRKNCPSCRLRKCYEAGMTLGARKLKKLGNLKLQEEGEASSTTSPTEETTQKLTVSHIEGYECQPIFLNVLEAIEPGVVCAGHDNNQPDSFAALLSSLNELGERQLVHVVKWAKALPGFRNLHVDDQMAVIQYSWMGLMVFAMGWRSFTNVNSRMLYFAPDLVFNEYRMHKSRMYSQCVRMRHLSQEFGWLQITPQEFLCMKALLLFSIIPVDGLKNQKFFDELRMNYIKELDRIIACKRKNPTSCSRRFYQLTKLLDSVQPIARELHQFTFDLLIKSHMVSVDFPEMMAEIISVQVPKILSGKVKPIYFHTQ
# How it was run: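 Quantitative HTS of the Tox21 10K library used HEK293 AR-UAS-bla cells stimulated with R1881 alongside compound for 16 h at 37C, followed by beta-lactamase FRET detection (LiveBLAzer B/G, 2 h, RT).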
# [6] = qHTS assay to identify small molecule antagonists of the thyroid receptor (TR) signaling pathway - cell viability counter screen (AID 743064); conditions: GH3.TRE-Luc viability, CellTiter-Fluor, 24 h; activity change, negative = cytotoxic: at 70.3 µM (top of the series) unless noted; also: potency is read from the fitted curve at half-maximal effect; nearly all actives have a fitted effect of over 50% in size
# How it was run: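 Fluorescence from CellTiter-Fluor, added after 23.5 h exposure at 37 °C, reported viability of GH3.TRE-Luc cells co-treated with compound and 1 nM T3. Measured in the same wells as the luciferase TR readout.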
# [7] = qHTS assay to identify small molecule antagonists of the thyroid receptor (TR) signaling pathway (AID 743065); also: potency is read from the fitted curve at half-maximal effect; nearly all actives have a fitted effect of over 55% in size
# How it was run: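 Antagonism measured as loss of luciferase signal in GH3 cells stably carrying a TRE-luciferase reporter, co-treated with compound and T3 (1 nM final) for 23.5 h at 37 C. Viability was read in the same well by CellTiter-Fluor.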
# [8] = target: Peroxisome proliferator-activated receptor gamma (Homo sapiens) (UniProt P37231); assay: qHTS assay to identify small molecule antagonists of the peroxisome proliferator-activated receptor gamma (PPARg) signaling pathway (AID 743191; calls by dose curve; also: % is scaled to controls: 0 for no effect and ±100 for the full control effect; nearly all actives have a fitted effect of over 30% in size); conditions: HEK293H PPARg-UAS-bla, beta-lactamase ratio, antagonist, 17 h; ratio activity, negative = inhibition: at 62.6 µM (top of the series) unless noted
# UniProt P37231, sequence (P37231 whole entry, looked up): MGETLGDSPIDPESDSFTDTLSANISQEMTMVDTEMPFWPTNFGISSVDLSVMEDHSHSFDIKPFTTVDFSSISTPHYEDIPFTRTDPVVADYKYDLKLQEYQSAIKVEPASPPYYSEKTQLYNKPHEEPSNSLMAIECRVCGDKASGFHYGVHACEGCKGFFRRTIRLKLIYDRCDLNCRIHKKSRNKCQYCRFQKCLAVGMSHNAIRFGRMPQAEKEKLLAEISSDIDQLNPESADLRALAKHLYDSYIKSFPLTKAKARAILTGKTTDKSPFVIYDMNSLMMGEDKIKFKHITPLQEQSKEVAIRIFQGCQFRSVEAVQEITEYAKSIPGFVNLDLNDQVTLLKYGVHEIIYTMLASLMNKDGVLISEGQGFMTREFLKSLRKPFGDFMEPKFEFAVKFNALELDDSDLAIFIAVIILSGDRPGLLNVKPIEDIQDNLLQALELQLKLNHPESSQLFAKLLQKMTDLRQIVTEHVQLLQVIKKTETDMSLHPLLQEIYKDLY
# How it was run: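 Beta-lactamase reporter under UAS control in HEK293H PPARg-bla cells; compound treatment 17 h at 37C. Read-out: fluorescence intensity after 1 h room-temperature incubation with LiveBLAzer B/G FRET substrate.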
# [9] = qHTS assay to identify small molecule antagonists of the peroxisome proliferator-activated receptor delta (PPARd) signaling pathway - cell viability counter screen (AID 743213); conditions: PPARd-bla HEK293H viability, CellTiter-Glo luminescence, 17 h; viability change, negative = cytotoxic: at 62 µM (top of the series) unless noted; also: % is scaled to controls: 0 for no effect and ±100 for the full control effect; nearly all actives have a fitted effect of over 50% in size
# How it was run: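 Viability counter-screen, qHTS format: PPARd-bla HEK293H, L165041 300 nM final, 17 h compound exposure at 37 C, CellTiter-Glo luminescence after 30 min RT.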
# [10] = target: Vitamin D3 receptor (Homo sapiens) (UniProt P11473); assay: qHTS assay to identify small molecule antagonists of the vitamin D receptor (VDR) signaling pathway (AID 743223; active = well fitted inhibition curve with a large enough effect in the signal ratio in the repeat runs, not every such curve was filed as active; inconclusive = weak or mixed curves, or effect the other way; inactive = no such curve, though single readings can be large or run the other way; the % refers to the signal ratio; also: potency is read from the fitted curve at half-maximal effect); conditions: VDR-UAS-bla HEK293T, beta-lactamase FRET ratio, 16 h; activity change, negative = inhibition: at 61 µM (top of the series) unless noted
# UniProt P11473, sequence (P11473 whole entry, looked up): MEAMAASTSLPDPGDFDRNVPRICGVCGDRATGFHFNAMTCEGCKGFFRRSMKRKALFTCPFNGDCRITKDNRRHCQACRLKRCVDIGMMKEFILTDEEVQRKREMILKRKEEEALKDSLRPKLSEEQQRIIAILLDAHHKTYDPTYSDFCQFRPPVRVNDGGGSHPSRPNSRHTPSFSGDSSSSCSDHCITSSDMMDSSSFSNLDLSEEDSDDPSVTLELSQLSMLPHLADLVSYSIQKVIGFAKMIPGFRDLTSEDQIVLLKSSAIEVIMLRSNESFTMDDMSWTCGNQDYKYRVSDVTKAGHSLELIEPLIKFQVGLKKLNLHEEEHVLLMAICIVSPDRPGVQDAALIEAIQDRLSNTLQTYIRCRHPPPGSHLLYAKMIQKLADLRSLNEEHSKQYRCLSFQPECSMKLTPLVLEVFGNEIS
# How it was run: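 Antagonist mode uses 1alpha,25-dihydroxyvitamin D3 at 3 nM final as stimulus. VDR-bla cells receive compounds in DMSO, incubate 16 h at 37C, then a beta-lactamase FRET substrate for 2 h at room temperature before fluorescence measurement.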
# [11] = target: Luciferin 4-monooxygenase (Photinus pyralis) (UniProt P08659); assay: qHTS assay to identify small molecule inhibitors of firefly luciferase (AID 1224835); also: % is scaled to controls: 0 for no effect and ±100 for the full control effect; nearly all actives have a fitted effect of over 25% in size
# UniProt P08659, sequence (P08659 whole entry, looked up): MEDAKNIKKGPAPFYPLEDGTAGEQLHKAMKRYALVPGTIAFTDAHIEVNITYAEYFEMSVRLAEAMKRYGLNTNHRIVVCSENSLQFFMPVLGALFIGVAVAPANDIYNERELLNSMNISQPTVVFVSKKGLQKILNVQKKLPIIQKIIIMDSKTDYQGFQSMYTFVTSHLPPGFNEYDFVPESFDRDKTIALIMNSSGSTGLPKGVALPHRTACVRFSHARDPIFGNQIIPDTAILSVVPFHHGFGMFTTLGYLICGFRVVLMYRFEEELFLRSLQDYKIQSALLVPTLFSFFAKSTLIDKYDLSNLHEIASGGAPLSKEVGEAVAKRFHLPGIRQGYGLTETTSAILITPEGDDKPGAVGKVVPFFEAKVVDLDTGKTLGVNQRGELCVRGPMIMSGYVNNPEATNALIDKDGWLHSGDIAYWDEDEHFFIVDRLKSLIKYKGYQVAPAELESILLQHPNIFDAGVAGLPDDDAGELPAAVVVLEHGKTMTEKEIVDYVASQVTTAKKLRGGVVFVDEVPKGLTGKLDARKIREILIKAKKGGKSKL
# How it was run: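 Inhibition of purified Photinus luciferase is measured by luminescence. Substrate levels (D-luciferin, ATP) sit at their KM values. Each compound is tested in a concentration series.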
# [12] = qHTS assay to identify small molecule agonists of the constitutive androstane receptor (CAR) signaling pathway - cell viability counter screen (AID 1224836); also: % is scaled to controls: 0 for no effect and ±100 for the full control effect; nearly all actives have a fitted effect of over 45% in size
# How it was run: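 HepG2-CYP2B6-hCAR, 2500 cells/well, 4 h pre-incubation; cpd 15 conc + PK11195 0.75 uM final; 23 h, 37 C/5% CO2; CellTiter-Fluor, fluorescence.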
# [13] = qHTS RealTime-Glo MT Cell Viability Assay in HEK293 cells - 16 hour (AID 1224872); also: potency is read from the fitted curve at half-maximal effect; nearly all actives have a fitted effect of over 50% in size
# How it was run: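 Tox21 10K qHTS, HEK293, 600 cells/well, RealTime-Glo reagent co-dispensed with cells; 5 h preincubation, compound by pintool, 37 C, luminescence at 0–40 h.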
# [14] = A CellTox Green Cytotoxicity Assay to monitor cytotoxicity in HepG2 cells - 0 hour (AID 1224882); also: potency is read from the fitted curve at half-maximal effect; nearly all actives have a fitted effect of over 35% in size
# How it was run: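 First, HepG2 cells (600/well) mixed with reagent were plated; second, after 5 h at 37 C they received compounds via pintool; third, fluorescence was measured at 0 h through 40 h at 8 h intervals.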
# [15] = qHTS RealTime-Glo MT Cell Viability Assay in HEK293 cells - 8 hour (AID 1224887); also: potency is read from the fitted curve at half-maximal effect; nearly all actives have a fitted effect of over 50% in size
# How it was run: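 600 HEK293 cells per well, dispensed already mixed with RealTime-Glo MT reagents. Compound dosing came 5 h later. The same wells were read for luminescence at 0, 8, 16, 24, 32 and 40 h of exposure at 37 C.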
# [16] = A CellTox Green Cytotoxicity Assay to monitor cytotoxicity in HEK293 cells - 16 hour (AID 1224888); also: potency is read from the fitted curve at half-maximal effect; nearly all actives have a fitted effect of over 35% in size
# How it was run: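 Dead-cell fluorescence measured kinetically: asymmetric cyanine dye, HEK293, 600 cells/well, 5 h settle, 23 nL cpd/DMSO, 37 C, reads 0–40 h every 8 h.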
# [17] = target: Androgen receptor (Homo sapiens) (UniProt P10275); assay: qHTS assay to identify small molecule antagonists of the androgen receptor (AR) signaling pathway using the MDA cell line in the presence of 0.5 nM R1881 (AID 1259243)
# How it was run: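 Antagonist mode quantitative HTS in MDA-kb2 MMTV-luciferase cells, agonist R1881 at 0.5 nM final, 16 hr exposure at 37C and 0% CO2, luminescent detection.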
# [18] = qHTS assay to identify small molecule agonists of the sonic hedgehog signaling (Shh) pathway - cell viability counter screen (AID 1259366)
# How it was run: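 Cytotoxicity counter screen run in the same wells as the Shh reporter assay. NIH/3T3 cells carrying a Gli1 response element–driven luciferase were treated with DMSO-dissolved compounds for 24hr, and live-cell protease activity was measured with CellTiter-Fluor.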
# [19] = qHTS assay to identify small molecule agonists of the androgen receptor (AR) signaling pathway in the presence of an antagonist - cell viability counter screen (AID 1259379); also: potency is read from the fitted curve at half-maximal effect; nearly all actives have a fitted effect of over 25% in size
# How it was run: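 Nilutamide-containing (3.0uM final) MDA-kb2 cultures, 3,000 cells/well, were treated with compounds across 15 concentrations. After 16 hr at 37C with no CO2, cell viability was determined by CellTiter-Fluor fluorescence in the luciferase assay wells.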
# [20] = target: Progesterone receptor (Homo sapiens) (UniProt P06401); assay: qHTS assay to identify small molecule antagonists of the progesterone receptor (PR) signaling pathway (AID 1346795; active = well fitted inhibition curve with a large enough effect in the signal ratio in the repeat runs, not every such curve was filed as active; inconclusive = weak or mixed curves; the % refers to the signal ratio; also: % is scaled to controls: 0 for no effect and ±100 for the full control effect); conditions: PR-UAS-bla HEK293T, beta-lactamase FRET ratio, 16 h; activity change, negative = inhibition: at 92.4 µM (top of the series) unless noted
# UniProt P06401, sequence (P06401 whole entry, looked up): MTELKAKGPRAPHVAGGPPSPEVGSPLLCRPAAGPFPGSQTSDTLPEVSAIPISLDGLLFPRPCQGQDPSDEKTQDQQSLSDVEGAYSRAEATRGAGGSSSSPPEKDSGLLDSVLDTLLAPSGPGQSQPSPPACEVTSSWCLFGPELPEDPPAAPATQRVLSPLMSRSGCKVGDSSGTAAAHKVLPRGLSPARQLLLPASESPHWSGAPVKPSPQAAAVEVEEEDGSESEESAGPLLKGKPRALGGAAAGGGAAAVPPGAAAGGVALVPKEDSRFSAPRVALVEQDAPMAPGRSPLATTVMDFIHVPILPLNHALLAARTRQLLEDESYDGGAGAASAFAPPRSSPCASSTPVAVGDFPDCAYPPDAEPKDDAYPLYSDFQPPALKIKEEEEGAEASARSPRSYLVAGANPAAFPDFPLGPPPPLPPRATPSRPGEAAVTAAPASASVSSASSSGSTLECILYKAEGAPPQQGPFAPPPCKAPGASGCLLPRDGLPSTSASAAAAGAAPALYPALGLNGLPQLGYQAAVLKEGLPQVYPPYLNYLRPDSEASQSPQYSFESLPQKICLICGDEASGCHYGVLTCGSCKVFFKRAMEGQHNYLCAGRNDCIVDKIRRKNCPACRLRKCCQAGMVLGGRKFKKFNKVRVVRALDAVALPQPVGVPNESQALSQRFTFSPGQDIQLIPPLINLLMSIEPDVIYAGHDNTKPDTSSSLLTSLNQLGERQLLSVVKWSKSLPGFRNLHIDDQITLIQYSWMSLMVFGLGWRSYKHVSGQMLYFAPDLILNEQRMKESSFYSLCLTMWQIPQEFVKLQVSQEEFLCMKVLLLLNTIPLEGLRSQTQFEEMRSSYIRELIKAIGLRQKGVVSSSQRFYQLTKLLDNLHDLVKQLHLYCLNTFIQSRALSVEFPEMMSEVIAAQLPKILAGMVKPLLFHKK
# How it was run: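 Read-out is fluorescence from the LiveBLAzer B/G FRET substrate, cleaved by a UAS-controlled beta-lactamase in PR-UAS-bla HEK293T cells after 16 hr exposure to compound plus 1 nM promegestone (final), followed by 2 hr at room temperature.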
# [21] = qHTS assay to identify small molecule antagonists of the progesterone receptor (PR) signaling pathway - cell viability counter screen (AID 1346798)
# How it was run: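 HEK293T PR-UAS-bla, 2% charcoal-stripped FBS; 4 hr pre-plate; cpd + R5020, 16 h 37C; LiveBLAzer read first; then CellTiter-Glo 30 min RT, luminescence.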
# [22] = Caspase-3/7 induction in HepG2 cells by small molecules, qHTS cell viability counter screen (AID 1346981); also: % is scaled to controls: 0 for no effect and ±100 for the full control effect; nearly all actives have a fitted effect of over 30% in size
# How it was run: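 In this quantitative HTS counter screen, compounds delivered in DMSO were left on unmodified HepG2 cells for 16 hr at 37 C. Viability was then determined fluorometrically with CellTiter-Fluor, in parallel with caspase-3/7 induction in the same wells.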
# [23] = target: Cytochrome P450 1A2 (Homo sapiens) (UniProt P05177); assay: Cytochrome P450 Family 1 Subfamily A Member 2 (CYP1A2) small molecule antagonists: luciferase reporter qHTS assay (AID 1671199)
# UniProt P05177, sequence (P05177 whole entry, looked up): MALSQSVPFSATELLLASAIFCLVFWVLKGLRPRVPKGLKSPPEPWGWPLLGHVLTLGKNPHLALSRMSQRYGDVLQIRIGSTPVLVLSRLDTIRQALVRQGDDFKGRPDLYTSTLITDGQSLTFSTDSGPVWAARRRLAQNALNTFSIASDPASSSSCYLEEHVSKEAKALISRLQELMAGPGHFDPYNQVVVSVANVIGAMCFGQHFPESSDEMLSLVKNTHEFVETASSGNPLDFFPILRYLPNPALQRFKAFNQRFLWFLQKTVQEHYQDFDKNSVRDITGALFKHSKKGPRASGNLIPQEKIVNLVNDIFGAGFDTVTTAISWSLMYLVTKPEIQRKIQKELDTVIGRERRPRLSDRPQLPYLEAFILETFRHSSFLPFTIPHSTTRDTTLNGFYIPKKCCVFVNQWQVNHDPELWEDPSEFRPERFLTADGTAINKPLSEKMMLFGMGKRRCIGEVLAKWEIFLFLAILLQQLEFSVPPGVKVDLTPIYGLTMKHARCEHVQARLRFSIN
# How it was run: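 Steps: enzyme-substrate mix dispensed; test compounds and furafylline control pinned in; 10 min room temperature; NADPH regeneration solution added, 1 h; reaction stopped with luciferin detection reagent; luminescence read after 20 min.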
# Tags tell the direction and shape of the fitted curve or compound fluorescence and quenching.
smiles,measurement,setting,value
CO[C@]12C[C@@H](COC(=O)c3cncc(Br)c3)CN(C)[C@@H]1Cc1cn(C)c3cccc2c13,Potency,[1],"inconclusive [falling, partial curve, poor fit]"
same,Potency,[2],inactive
same,Potency,[3],active: 11.9 µM
same,Potency,[4],"inconclusive [cytotoxic, full curve, poor fit]"
same,Potency,[5],inactive
same,Potency,[6],active: 21.1 µM
same,Potency,[7],active: 21.1 µM
same,"ratio activity, negative = inhibition",[8],inconclusive: 14.9%
same,Potency,[9],inactive
same,Potency,[10],"inconclusive [activator, partial curve, poor fit]"
same,Potency,[11],inactive
same,Potency,[12],inactive
same,Potency,[13],"inconclusive [cytotoxic, single point]"
same,Potency,[14],"inconclusive [activator, single point]"
same,Potency,[15],active: 21.3 µM
same,Potency,[16],"inconclusive [activator, partial curve, poor fit]"
same,Potency,[17],"inconclusive [inhibitor, single point]"
same,Potency,[18],inactive
same,Potency,[19],"inconclusive [cytotoxic, partial curve, poor fit]"
same,Potency,[20],inactive
same,Potency,[21],"inconclusive [cytotoxic, single point]"
same,Potency,[22],inactive
same,Potency,[23],"inconclusive [inhibitor, partial curve]"
